# Laboratory results from the supplement of paper PMC12217912.
# The other results are listed elsewhere or left out. Sequences were assembled here from the parent chain. Values near 0.05 are background.
# B1: TEV protease; numbered along this chain (parent)
# chain: MGESLFKGPRDYNPISSSICHLTNESDGHTTSLYGIGFGPFIITNKHLFRRNNGTLVVQSLHGVFKVKDTTTLQQHLVDGRDMIIIRMPKDFPPFPQKLKFREPQREERICLVTTNFQTKSMSSMVSDTSCTFPSGDGIFWKHWIQTKDGQCGSPLVSTRDGFIVGIHSASNFTNTNNYFTSVPKNFMELLTNQEAQQWVSGWRLNADSVLWGGHKVFMVKPEEPFQPVKEATQL
# Variants of: B1
# Experiment: raw area under fraction-flipped curve 0-4 h after induction (AUC4h, not background-subtracted), DNA-recorder readout of cleavage of the substrate (dimensionless); higher = more cleavage of the substrate by the protease variant
# Settings: temperature: 34 °C; time window: 0-4 h after rhamnose induction
# Description: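 In vivo DNA recorder in E. coli TOP10(DE3) ΔrhaA at 34 °C. Each TEVp single-site mutant (parent TEVp 0) is paired with a single-site variant of the 7-mer TEVs (canonical ENLYFQ|S). The substrate sits between flexible linkers in a Bxb1-sfGFP-TEVs-SsrA fusion, so cleavage stabilises Bxb1 and speeds flipping of a recombination array, read by NGS. The value is the raw area under the fraction-flipped curve over 0-4 h after rhamnose induction (AUC4h), with ≥20 reads per time point. It is not background-subtracted; inactive controls average about 0.047.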
# 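Note: Bxb1 expression induced with 0.2% (w/v) L-rhamnose at OD600 near 0.5, cultures sampled hourly, flipped fraction per protease–substrate barcode pair counted by paired-end Illumina sequencing.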
variant,measurement,value
MGESLFKGPRDYNPISSSICHLTNESDGHTTSLYGIGFGPFIITNKHLFRRNNGTLVVQSLHGVFKVKDTTTLQQHLVDGRDMIIIRMPKDFPPFPQKLKFREPQREEDICLVTTNFQTKSMSSMVSDTSCTFPSGDGIFWKHWIQTKDGQCGSPLVSTRDGFIVGIHSASNFTNTNNYFTSVPKNFMELLTNQEAQQWVSGWRLNADSVLWGGHKVFMVKPEEPFQPVKEATQL [R109D],area with substrate HNLYFQS,0.0845
same,area with substrate INLYFQS,0.0501
same,area with substrate KNLYFQS,0.0603
same,area with substrate LNLYFQS,0.0795
same,area with substrate PNLYFQS,0.0652
same,area with substrate QNLYFQS,0.0646
same,area with substrate SNLYFQS,0.0621
same,area with substrate TNLYFQS,0.064
same,area with substrate VNLYFQS,0.0485
same,area with substrate WNLYFQS,0.0536
MGESLFKGPRDYNPISSSICHLTNESDGHTTSLYGIGFGPFIITNKHLFRRNNGTLVVQSLHGVFKVKDTTTLQQHLVDGRDMIIILMPKDFPPFPQKLKFREPQREERICLVTTNFQTKSMSSMVSDTSCTFPSGDGIFWKHWIQTKDGQCGSPLVSTRDGFIVGIHSASNFTNTNNYFTSVPKNFMELLTNQEAQQWVSGWRLNADSVLWGGHKVFMVKPEEPFQPVKEATQL [R87L],area with substrate HNLYFQS,0.0693
same,area with substrate LNLYFQS,0.0621
same,area with substrate SNLYFQS,0.0505
same,area with substrate TNLYFQS,0.0603
same,area with substrate VNLYFQS,0.0892
same,area with substrate WNLYFQS,0.0556
same,area with substrate YNLYFQS,0.057
MGESLFKGPRDYNPISSSICHLTNESDGHTTSLYGIGFGPFIITNKHLFRRNNGTLVVQSLHGVFKEKDTTTLQQHLVDGRDMIIIRMPKDFPPFPQKLKFREPQREERICLVTTNFQTKSMSSMVSDTSCTFPSGDGIFWKHWIQTKDGQCGSPLVSTRDGFIVGIHSASNFTNTNNYFTSVPKNFMELLTNQEAQQWVSGWRLNADSVLWGGHKVFMVKPEEPFQPVKEATQL [V67E],area with substrate HNLYFQS,0.045
same,area with substrate PNLYFQS,0.0859
same,area with substrate TNLYFQS,0.0391
MGESLFKGPRDYNPISSSICHLTNESDGHTTSLYGIGFGPFIITNKHLFRRNNGTLVVQSLHGVFKVKDTTTLQQHLVDGRDMIIIRMPKDFPPFPQKLKFREPQREERACLVTTNFQTKSMSSMVSDTSCTFPSGDGIFWKHWIQTKDGQCGSPLVSTRDGFIVGIHSASNFTNTNNYFTSVPKNFMELLTNQEAQQWVSGWRLNADSVLWGGHKVFMVKPEEPFQPVKEATQL [I110A],area with substrate HNLYFQS,0.0638
same,area with substrate INLYFQS,0.0646
same,area with substrate RNLYFQS,0.0559
MGESLFKGPRDYNPISSSICHLTNESDGHTTSLYGIGFGPFIITNKHLFRRNNGTLVVQSLHGVFKVKDTTTLQQHLVDGRDMIIIRMPKDFPPFPQKLKFREPQREERICLVTTNFQTKSMSSMVNDTSCTFPSGDGIFWKHWIQTKDGQCGSPLVSTRDGFIVGIHSASNFTNTNNYFTSVPKNFMELLTNQEAQQWVSGWRLNADSVLWGGHKVFMVKPEEPFQPVKEATQL [S127N],area with substrate HNLYFQS,0.0172
same,area with substrate INLYFQS,0.0625
same,area with substrate KNLYFQS,0.0724
same,area with substrate MNLYFQS,0.0626
same,area with substrate NNLYFQS,0.061
same,area with substrate PNLYFQS,0.0699
same,area with substrate SNLYFQS,0.0724
same,area with substrate TNLYFQS,0.0739
same,area with substrate WNLYFQS,0.0769
same,area with substrate YNLYFQS,0.0529
MGESLFKGPRDYNPISSSICHLTNESDGHTTSLYGIGFGPFIITNKHLFRRNNGTLVVQSLHGVFKVKDTTTLQQHLVDGRDMIIIRMPKDFPPFPQKLKFREPQREERICLVTTNIQTKSMSSMVSDTSCTFPSGDGIFWKHWIQTKDGQCGSPLVSTRDGFIVGIHSASNFTNTNNYFTSVPKNFMELLTNQEAQQWVSGWRLNADSVLWGGHKVFMVKPEEPFQPVKEATQL [F117I],area with substrate HNLYFQS,0.0709
same,area with substrate MNLYFQS,0.0489
same,area with substrate TNLYFQS,0.058
same,area with substrate WNLYFQS,0.0596
MGESLFKGPRDYNPISSSICHLTNESDGHTTSLYGIGFGPFIITNKHLFRRNNGTLVVQSLHGVFKVKDTTTLQQHLVDGRDMIIIRMPKDFPPFPQKLKFREPQREERICLVTTNFQTKSMSSMVSDTSCTFPSGDGIFWKEWIQTKDGQCGSPLVSTRDGFIVGIHSASNFTNTNNYFTSVPKNFMELLTNQEAQQWVSGWRLNADSVLWGGHKVFMVKPEEPFQPVKEATQL [H143E],area with substrate HNLYFQS,0.0484
same,area with substrate KNLYFQS,0.0567
same,area with substrate LNLYFQS,0.0409
same,area with substrate MNLYFQS,0.0575
same,area with substrate PNLYFQS,0.0606
same,area with substrate RNLYFQS,0.0461
same,area with substrate SNLYFQS,0.041
same,area with substrate TNLYFQS,0.041
same,area with substrate VNLYFQS,0.0493
same,area with substrate WNLYFQS,0.0518
same,area with substrate YNLYFQS,0.0292
MGESLFKGPRDYNPISSSICHLTNESDGHTTSLYGIGFGPFIITNKHLFRRNNGTLVVQSLHGVFKVKDCTTLQQHLVDGRDMIIIRMPKDFPPFPQKLKFREPQREERICLVTTNFQTKSMSSMVSDTSCTFPSGDGIFWKHWIQTKDGQCGSPLVSTRDGFIVGIHSASNFTNTNNYFTSVPKNFMELLTNQEAQQWVSGWRLNADSVLWGGHKVFMVKPEEPFQPVKEATQL [T70C],area with substrate HNLYFQS,0.0579
same,area with substrate INLYFQS,0.0633
same,area with substrate MNLYFQS,0.0588
same,area with substrate NNLYFQS,0.0614
same,area with substrate QNLYFQS,0.0409
same,area with substrate TNLYFQS,0.0581
same,area with substrate VNLYFQS,0.0535
same,area with substrate WNLYFQS,0.0481
same,area with substrate YNLYFQS,0.053
MGESLFKGPRDYNPISSSICHLTNESDGHTTSLYGIGFGPFIITNKHLFRRNNGTLVVQSLHGVFKVKDTTTLQQHLVDGRDMIIIRMPKDFPPFPQKLKFREPQREERICLVTTNFQKKSMSSMVSDTSCTFPSGDGIFWKHWIQTKDGQCGSPLVSTRDGFIVGIHSASNFTNTNNYFTSVPKNFMELLTNQEAQQWVSGWRLNADSVLWGGHKVFMVKPEEPFQPVKEATQL [T119K],area with substrate HNLYFQS,0.0565
same,area with substrate LNLYFQS,0.0855
same,area with substrate SNLYFQS,0.056
same,area with substrate TNLYFQS,0.0711
same,area with substrate WNLYFQS,0.068
same,area with substrate YNLYFQS,0.0641
MGESLFKGPRDYNPISSSICHLTNESDGHTTSLYGIGFGPFIITNKHLFRRNNGTLVVQSLHGVFKVKDTTTLQQHLVDGRDMIIIRMPKDFPPFPQKLKFREPQREERICLVTTNFQTKSMSSMVSDTSCTFPSGDGIFWKHWIQTKDGQCGSPLTSTRDGFIVGIHSASNFTNTNNYFTSVPKNFMELLTNQEAQQWVSGWRLNADSVLWGGHKVFMVKPEEPFQPVKEATQL [V157T],area with substrate HNLYFQS,0.0643
same,area with substrate TNLYFQS,0.0978
same,area with substrate WNLYFQS,0.0613
MGESLFKGPRDYNPISSSICHLTNESDGHTTSLYGIGFGPFIITNKHLFRRNNGTLVVQSLHGVFKVKDTTTLQQHLVDGRDMIIIRMPKDFPPFPQKLKFREPQRDERICLVTTNFQTKSMSSMVSDTSCTFPSGDGIFWKHWIQTKDGQCGSPLVSTRDGFIVGIHSASNFTNTNNYFTSVPKNFMELLTNQEAQQWVSGWRLNADSVLWGGHKVFMVKPEEPFQPVKEATQL [E107D],area with substrate HNLYFQS,0.0647
same,area with substrate INLYFQS,0.0438
same,area with substrate LNLYFQS,0.0612
same,area with substrate PNLYFQS,0.0401
same,area with substrate TNLYFQS,0.0724
same,area with substrate VNLYFQS,0.0622
same,area with substrate WNLYFQS,0.0612
